For part of its entries the source gives two or more results. The list is limited to them. An entry can have further records. The values listed for one entry are repeated measurements (runs, samples, wells, individuals or studies). Inconclusive results are not listed. The calls were made as follows, unless noted: active = hit-call score of the fitted dose curve at least 0.9, where 1 is the maximum; inactive = score below 0.9. More than one record can exist for a structure, and the calls need not agree.
Tests used:
[1] = ATG_PPRE_CIS: Attagene CIS-FACTORIAL HepG2 Assay for human Peroxisome Proliferator-activated Response Element (PPRE) (AID 2282958); settings: HepG2 PPRE cis-element reporter, Attagene transcription factor profiling; actives raise or lower the signal
Outline: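 Transcript-level reporter induction in transfected HepG2 cells after 24 h chemical exposure, quantified by fluorescence from RT-PCR products separated by capillary electrophoresis.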

[2] = target: Transcription factor Sp1 (Homo sapiens) (UniProt P08047); assay: ATG_Sp1_CIS: Attagene CIS-FACTORIAL HepG2 Assay for human Specificity Protein 1 (Sp1) (AID 2282961); settings: HepG2 Sp1 cis-reporter transcription, actives raise or lower the signal
Chain of UniProt P08047 (P08047 whole entry, looked up): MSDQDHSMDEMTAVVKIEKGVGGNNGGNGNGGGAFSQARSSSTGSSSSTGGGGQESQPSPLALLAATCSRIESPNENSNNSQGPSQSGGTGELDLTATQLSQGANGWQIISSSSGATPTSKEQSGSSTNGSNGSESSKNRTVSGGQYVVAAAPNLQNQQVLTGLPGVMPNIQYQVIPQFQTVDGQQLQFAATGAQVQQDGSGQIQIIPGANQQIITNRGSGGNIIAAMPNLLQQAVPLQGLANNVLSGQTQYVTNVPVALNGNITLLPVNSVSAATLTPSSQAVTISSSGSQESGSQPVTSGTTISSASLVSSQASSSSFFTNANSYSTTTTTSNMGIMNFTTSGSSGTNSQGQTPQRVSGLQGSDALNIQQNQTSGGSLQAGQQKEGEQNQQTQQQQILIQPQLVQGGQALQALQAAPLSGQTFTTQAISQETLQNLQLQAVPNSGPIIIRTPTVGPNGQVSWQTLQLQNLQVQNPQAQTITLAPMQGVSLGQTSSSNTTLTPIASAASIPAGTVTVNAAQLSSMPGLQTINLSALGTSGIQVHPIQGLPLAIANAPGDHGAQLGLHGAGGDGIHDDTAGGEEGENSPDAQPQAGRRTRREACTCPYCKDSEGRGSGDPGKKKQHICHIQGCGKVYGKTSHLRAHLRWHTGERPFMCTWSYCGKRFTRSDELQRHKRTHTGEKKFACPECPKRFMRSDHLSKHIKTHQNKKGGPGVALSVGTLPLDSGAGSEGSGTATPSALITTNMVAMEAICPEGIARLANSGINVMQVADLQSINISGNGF
Outline: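 Measures mRNA induction of an Sp1-linked reporter in HepG2 cells 24 h post-dosing. Multiplexed reporters read by RT-PCR and capillary electrophoresis; DMSO serves as negative control and baseline.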

[3] = target: Nuclear receptor subfamily 1 group I member 2 (Homo sapiens) (UniProt O75469); assay: ATG_PXR_TRANS: Attagene TRANS-FACTORIAL HepG2 Assay for human Pregnane X Receptor (PXR) (AID 2283008; active = hit-call score of the fitted dose curve at least 0.9, where 1 is the maximum)
Chain of UniProt O75469 (O75469 whole entry, looked up, the tested form may be a part): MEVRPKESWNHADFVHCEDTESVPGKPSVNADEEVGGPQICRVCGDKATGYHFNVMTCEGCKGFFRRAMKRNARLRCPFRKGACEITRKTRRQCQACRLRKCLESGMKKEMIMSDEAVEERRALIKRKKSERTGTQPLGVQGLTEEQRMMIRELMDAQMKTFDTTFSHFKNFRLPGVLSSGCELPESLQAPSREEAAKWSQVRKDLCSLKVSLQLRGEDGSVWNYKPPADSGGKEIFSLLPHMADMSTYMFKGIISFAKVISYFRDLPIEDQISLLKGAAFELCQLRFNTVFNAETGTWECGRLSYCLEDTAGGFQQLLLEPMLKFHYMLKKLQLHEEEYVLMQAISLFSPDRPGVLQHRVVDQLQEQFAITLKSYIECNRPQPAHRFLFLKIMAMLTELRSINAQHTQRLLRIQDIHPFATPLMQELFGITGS
Outline: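 Trans-factorial format: exogenous NR-Gal4 fusion activity, not endogenous factor, in transfected human HepG2 liver cells. After 24 h dosing, RNA isolated, reverse-transcribed, amplified and resolved by capillary electrophoresis; induction scored versus DMSO.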

[4] = read-out: Interleukin-6 (IL6), IL6 (gene 3569); assay: BSK_CASM3C_IL6: BioMAP Diversity Plus: CASM3C Assay for Interleukin-6 (IL6) Biomarker Activity for (AID 2283040); settings: actives raise or lower the signal; primary human coronary artery smooth muscle cells
[5] = target: Cytochrome P450 2C19 (Homo sapiens) (UniProt P33261); assay: NVS_ADME_hCYP2C19: NovaScreen (NVS) CYP450-related Enzyme Activity (ADME) Assay for human CYP2C19 (AID 2283113; active = hit-call score of the fitted dose curve at least 0.9, where 1 is the maximum;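 also: potency for inhibition seen as loss of fluorescent signal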)
Chain of UniProt P33261 (P33261 whole entry, looked up): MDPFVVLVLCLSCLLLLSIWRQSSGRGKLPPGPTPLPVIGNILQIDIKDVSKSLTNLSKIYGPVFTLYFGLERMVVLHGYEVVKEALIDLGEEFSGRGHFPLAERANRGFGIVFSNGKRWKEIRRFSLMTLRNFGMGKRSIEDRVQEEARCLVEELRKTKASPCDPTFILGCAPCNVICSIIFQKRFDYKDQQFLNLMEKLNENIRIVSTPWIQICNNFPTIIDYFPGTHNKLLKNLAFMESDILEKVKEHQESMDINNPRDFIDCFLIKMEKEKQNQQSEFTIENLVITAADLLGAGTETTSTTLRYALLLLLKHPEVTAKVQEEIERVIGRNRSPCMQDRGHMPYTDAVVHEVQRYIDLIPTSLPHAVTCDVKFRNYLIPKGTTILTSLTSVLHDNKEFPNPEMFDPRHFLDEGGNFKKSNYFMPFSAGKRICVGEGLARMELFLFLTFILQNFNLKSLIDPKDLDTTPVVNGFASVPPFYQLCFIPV
Outline: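 Cell-free recombinant human CYP2C19 from insect cells, fluorescent substrate; activity read by fluorescence intensity 1 h after dosing. Primary screen in duplicate at 10 uM; actives retested in concentration series. Signal loss versus acetonitrile negative control.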

[6] = CPHEA_Stoker_NIS_Cytotoxicity: Cytotoxicity Assessment for CPHEA's Radioactive Iodide Uptake (RAIU) Assay for Sodium/Iodide Symporter (NIS) Inhibition, Stoker and Laws Labs (AID 2283897; active = hit-call score of the fitted dose curve at least 0.9, where 1 is the maximum;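 also: active means loss of ATP signal versus DMSO meaning cytotoxicity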)
Outline: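 ATP luminescence (Cell Titer Glo) measured viability, with loss of signal normalized to DMSO controls. Cells: hNIS-HEK293T-EPA, seeded 40 hours prior. Dosing: 0.001–100uM, 2 hours, room temperature, uptake buffer pH 7.4.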

[7] = target: Aryl hydrocarbon receptor (Homo sapiens) (UniProt P35869); assay: ATG_Ahr_CIS: Attagene CIS-FACTORIAL HepG2 Assay for human Aryl Hydrocarbon Receptor (Ahr) (AID 2282930); settings: HepG2 AhR cis-factorial reporter transcription; actives raise or lower the signal
Chain of UniProt P35869 (P35869 whole entry, looked up): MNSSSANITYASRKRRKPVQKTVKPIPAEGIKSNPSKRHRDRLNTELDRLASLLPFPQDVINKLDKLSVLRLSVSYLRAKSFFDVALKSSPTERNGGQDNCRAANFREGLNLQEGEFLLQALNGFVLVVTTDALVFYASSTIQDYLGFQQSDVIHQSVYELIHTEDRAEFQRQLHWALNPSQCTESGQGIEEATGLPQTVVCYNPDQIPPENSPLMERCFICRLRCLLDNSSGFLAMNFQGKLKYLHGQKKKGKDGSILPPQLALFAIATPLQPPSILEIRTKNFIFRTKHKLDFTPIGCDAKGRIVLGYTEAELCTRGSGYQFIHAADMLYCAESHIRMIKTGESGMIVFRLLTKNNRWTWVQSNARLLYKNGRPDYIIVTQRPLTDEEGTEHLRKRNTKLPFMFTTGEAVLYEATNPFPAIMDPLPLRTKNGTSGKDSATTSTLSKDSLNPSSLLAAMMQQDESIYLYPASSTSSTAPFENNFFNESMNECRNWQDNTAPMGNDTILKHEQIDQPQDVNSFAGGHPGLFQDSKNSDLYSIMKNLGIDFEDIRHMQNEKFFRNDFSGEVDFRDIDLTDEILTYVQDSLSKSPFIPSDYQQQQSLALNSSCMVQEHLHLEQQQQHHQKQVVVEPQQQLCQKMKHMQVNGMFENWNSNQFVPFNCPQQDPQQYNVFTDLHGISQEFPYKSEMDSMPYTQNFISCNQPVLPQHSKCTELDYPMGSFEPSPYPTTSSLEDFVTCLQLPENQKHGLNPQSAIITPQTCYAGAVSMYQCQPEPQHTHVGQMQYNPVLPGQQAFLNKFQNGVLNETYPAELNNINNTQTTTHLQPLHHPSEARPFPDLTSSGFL
Outline: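 HepG2 cells transiently transfected with cis-element-driven multiplexed reporter units; endogenous AhR activity read as reporter mRNA 24 h after dosing, via RT-PCR, 6-FAM labelling, HpaI digestion and capillary electrophoresis. Bidirectional fit relative to DMSO.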

[8] = ATG_VDRE_CIS: Attagene CIS-FACTORIAL HepG2 Assay for human Vitamin D Receptor Element (VDRE) (AID 2282968); settings: HepG2 VDRE cis-reporter transcription, actives raise or lower the signal
Outline: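 Transient MRTU transfection of HepG2, 24 h compound exposure. Readout: reporter transcripts via RT-PCR and capillary electrophoresis, fluorescence. Bidirectional fit vs DMSO.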

[9] = BSK_hDFCGF_Proliferation: Cell Proliferation Assessment in the BioMAP Diversity Plus: hDFCGF Assay (AID 2283059); settings: primary human foreskin fibroblasts;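 also: curves fitted for both rise and fall of signal versus DMSO baseline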
Outline: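 Steps: dose primary human dermal fibroblasts (foreskin); […] fix in 10% TCA; stain with 0.1% SRB; read 560 nm; fit gain or loss of signal against DMSO.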

[10] = target: human Dopamine Transporter (DAT), SLC6A3 (gene 6531) (UniProt Q01959); assay: NVS_TR_hDAT: NovaScreen (NVS) Transporter Assay for human Dopamine Transporter (DAT) (AID 2283374; active = hit-call score of the fitted dose curve at least 0.9, where 1 is the maximum;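 also: activity means loss of bound radioligand signal relative to DMSO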)
Chain of UniProt Q01959 (Q01959 whole entry, looked up): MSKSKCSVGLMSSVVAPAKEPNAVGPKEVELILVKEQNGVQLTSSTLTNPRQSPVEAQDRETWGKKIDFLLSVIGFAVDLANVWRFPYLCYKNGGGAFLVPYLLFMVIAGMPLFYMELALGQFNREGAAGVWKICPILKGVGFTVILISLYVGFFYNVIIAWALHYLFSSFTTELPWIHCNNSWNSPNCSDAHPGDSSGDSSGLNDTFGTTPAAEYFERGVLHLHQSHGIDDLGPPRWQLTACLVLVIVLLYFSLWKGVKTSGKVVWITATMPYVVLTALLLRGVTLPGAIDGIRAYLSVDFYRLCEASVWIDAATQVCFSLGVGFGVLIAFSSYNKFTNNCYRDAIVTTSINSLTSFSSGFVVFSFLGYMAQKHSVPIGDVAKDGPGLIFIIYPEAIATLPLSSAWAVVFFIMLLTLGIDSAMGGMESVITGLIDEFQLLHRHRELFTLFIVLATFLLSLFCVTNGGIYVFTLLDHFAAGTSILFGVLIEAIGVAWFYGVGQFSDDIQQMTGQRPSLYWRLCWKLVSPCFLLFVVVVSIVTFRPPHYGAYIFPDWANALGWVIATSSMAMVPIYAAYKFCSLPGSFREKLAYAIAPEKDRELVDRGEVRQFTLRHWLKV
Outline: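 hDAT membranes + tritiated/iodinated radioligand, competitive displacement; 1 h; filter scintillation readout. Single conc 25 uM (duplicate), then conc-response for actives. DMSO = negative control.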

[11] = CEETOX_H295R_OHPREG: CeeTox H295R High-throughput Steroidogenesis Assay for OH-Pregnenolone (OHPREG) (AID 2283434); settings: actives raise or lower the signal
Outline: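 H295R, 10 uM forskolin pre-stim 48 h; test chemical 48 h, 0.1% DMSO final. MTBE extraction, reverse-phase C18 HPLC-ESI+ MS/MS of medium. Gain/loss vs DMSO; viability by MTT in same wells.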

[12] = CEETOX_H295R_PROG: CeeTox H295R High-throughput Steroidogenesis Assay for Progesterone (PROG) (AID 2283442); settings: actives raise or lower the signal;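 also: human H295R adrenal cells primed with 10 µM forskolin before dosing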
Outline: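 H295R adrenal cells prestimulated 48 h with 10 uM forskolin, then exposed 48 h to test chemical in 0.1% DMSO. Progesterone in medium quantified by HPLC-MS/MS after MTBE extraction; viability checked by MTT in same wells.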

SMILES: Oc1cc(Cl)ccc1Oc1ccc(Cl)cc1Cl
- AC50 [1]: active: 7.31, 14.3, 15.6, 5.08, 13.3, 5.97 µM [separate samples]
- AC50 [2]: active: 16.1, 4.75, 17.3, 8.52 µM [separate samples]
- AC50 [3]: active: 4.06, 6.1, 6.27, 11.3, 3.52, 5.64, 5.97 µM [separate samples]
- AC50 [4]: active: 559 nM, 31.6 µM, 35.3 µM, 32.5 µM [separate samples]
- AC50 [5]: active: 2.43, 2.1, 2.82, 10 µM [separate samples]
- AC50 [6]: active: 50, 72.2, 9.92, 13, 27.8, 42.6, 32.1 µM [separate samples]

SMILES: ClC1C(Cl)C(Cl)C(Cl)C(Cl)C1Cl (stereo not drawn)
- AC50 [3]: active: 814 nM, 16.5 µM, 2.71 µM, 5.31 µM [separate samples]

SMILES: CC(C)(C)C(O)C(Oc1ccc(Cl)cc1)n1cncn1 (stereo not drawn)
- AC50 [7]: active: 53.5, 31.9, 41.6, 28.2, 15.9 µM [separate samples]
- AC50 [8]: active: 2.99, 2.34, 1.23, 5.51 µM [separate samples]
- AC50 [9]: active: 3.22, 5.19, 5.54, 11.1 µM [separate samples]
- AC50 [10]: active: 402, 133, 420, 602, 492 nM [separate samples]
- AC50 [11]: active: 525 nM, 4.31 µM, 4.24 µM, 3.63 µM [separate samples]
- AC50 [12]: active: 6.28 µM, 1.97 µM, 2.32 µM, 864 nM [separate samples]

— PubChem BioAssay (EPA / NIEHS)
